Results published in the supplement of paper PMC8728848.
About 410 targets per protein were measured; listed, in parts, are those with the strongest signals and a random draw of the rest.

Experiments:
Assay in all cases: glycan array binding signal (z-score within array); higher = stronger binding
Settings in all cases: glycan notation: IUPAC condensed, linker removed
[1] = test system: Gal(b1-3)[Neu5Ac(b2-6)]GlcNAc
Outline: (§1)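 From the Consortium for Functional Glycomics database, 3228 arrays were curated, keeping only those whose protein sequence was available. Binding is given as a within-array Z-score averaged across arrays sharing a protein sequence and across linkers. Negative Z-scores can be read as non-binding.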

[2] = test system: Gal(b1-4)GlcNAc(b1-2)Man(a1-3)Man(b1-4)GlcNAc(b1-4)GlcNAc
Outline: as §1

[3] = test system: Gal(b1-4)GlcNAc(b1-2)Man(a1-6)[Man(a1-3)]Man(b1-4)GlcNAc(b1-4)GlcNAc
Outline: as §1

[4] = test system: Gal(b1-4)GalNAc(b1-3)[Fuc(a1-2)]Gal(b1-4)GlcNAc
Outline: as §1

[5] = test system: Gal(b1-4)GlcNAc(a1-6)Gal(b1-4)GlcNAc
Outline: as §1

[6] = test system: Gal(b1-4)GlcNAc(b1-2)[Gal(b1-4)GlcNAc(b1-6)]Man(a1-6)[Gal(b1-4)GlcNAc(b1-2)Man(a1-3)]Man(b1-4)GlcNAc(b1-4)[Fuc(a1-6)]GlcNAc
Outline: as §1

[7] = test system: Gal(b1-4)GlcNAc(b1-2)[Gal(b1-4)GlcNAc(b1-6)]Man(a1-6)[GlcNAc(b1-4)][Gal(b1-4)GlcNAc(b1-2)[Gal(b1-4)GlcNAc(b1-4)]Man(a1-3)]Man(b1-4)GlcNAc(b1-4)[Fuc(a1-6)]GlcNAc
Outline: as §1

[8] = test system: Gal(b1-4)GlcNAc(b1-3)Gal(b1-4)GlcNAc(b1-2)[Gal(b1-4)GlcNAc(b1-3)Gal(b1-4)GlcNAc(b1-6)]Man(a1-6)[Gal(b1-4)GlcNAc(b1-3)Gal(b1-4)GlcNAc(b1-2)Man(a1-3)]Man(b1-4)GlcNAc(b1-4)[Fuc(a1-6)]GlcNAc
Outline: as §1

[9] = test system: Gal(b1-4)GlcNAc(b1-2)Man(a1-3)[Gal(b1-4)GlcNAc(b1-2)Man(a1-6)]Man(b1-4)GlcNAc(b1-4)GlcNAc
Outline: as §1

[10] = test system: Gal(b1-4)GlcNAc(b1-2)Man(a1-6)Man(b1-4)GlcNAc(b1-4)GlcNAc
Outline: as §1

[11] = test system: Gal(b1-4)GlcNAc(b1-3)Gal(b1-3)GlcNAc
Outline: as §1

[12] = test system: Gal(b1-4)GlcNAc(b1-2)Man(a1-3)[Gal(b1-4)GlcNAc(b1-2)Man(a1-6)][Gal(b1-4)GlcNAc(b1-4)]Man(b1-4)GlcNAc(b1-4)[Fuc(a1-6)]GlcNAc
Outline: as §1

[13] = test system: Gal(b1-4)GlcNAc(b1-2)[Gal(b1-4)GlcNAc(b1-6)]Man(a1-6)[GlcNAc(b1-4)][Gal(b1-4)GlcNAc(b1-2)Man(a1-3)]Man(b1-4)GlcNAc(b1-4)GlcNAc
Outline: as §1

[14] = test system: Gal(b1-4)GlcNAc(b1-3)Gal(b1-4)GlcNAc(b1-2)[Gal(b1-4)GlcNAc(b1-3)Gal(b1-4)GlcNAc(b1-6)]Man(a1-6)[Gal(b1-4)GlcNAc(b1-3)Gal(b1-4)GlcNAc(b1-2)Man(a1-3)]Man(b1-4)GlcNAc(b1-4)GlcNAc
Outline: as §1

[15] = test system: Gal(b1-4)GlcNAc(b1-3)Gal(b1-4)GlcNAc(b1-3)Gal(b1-4)GlcNAc(b1-2)Man(a1-3)[Gal(b1-4)GlcNAc(b1-3)Gal(b1-4)GlcNAc(b1-3)Gal(b1-4)GlcNAc(b1-2)Man(a1-6)]Man(b1-4)GlcNAc(b1-4)GlcNAc
Outline: as §1

[16] = test system: Gal(b1-4)GlcNAc(b1-3)Gal(b1-4)GlcNAc(b1-3)Gal(b1-4)GlcNAc(b1-3)Gal(b1-4)GlcNAc(b1-2)Man(a1-3)[Gal(b1-4)GlcNAc(b1-3)Gal(b1-4)GlcNAc(b1-3)Gal(b1-4)GlcNAc(b1-3)Gal(b1-4)GlcNAc(b1-2)Man(a1-6)]Man(b1-4)GlcNAc(b1-4)GlcNAc
Outline: as §1

[17] = test system: Gal(b1-4)GlcNAc(b1-2)Man(a1-3)[GlcNAc(b1-4)][Gal(b1-4)GlcNAc(b1-2)Man(a1-6)]Man(b1-4)GlcNAc(b1-4)GlcNAc
Outline: as §1

[18] = test system: Gal(b1-4)GlcNAc(b1-2)[Gal(b1-4)GlcNAc(b1-4)]Man(a1-3)[Gal(b1-4)GlcNAc(b1-2)Man(a1-6)]Man(b1-4)GlcNAc(b1-4)GlcNAc
Outline: as §1

[19] = test system: Gal(b1-4)GlcNAc(b1-3)Gal(b1-4)GlcNAc(b1-3)Gal(b1-4)GlcNAc(b1-2)Man(a1-3)[Gal(b1-4)GlcNAc(b1-3)Gal(b1-4)GlcNAc(b1-3)Gal(b1-4)GlcNAc(b1-2)Man(a1-6)]Man(b1-4)GlcNAc(b1-4)[Fuc(a1-6)]GlcNAc
Outline: as §1

[20] = test system: Gal(b1-4)GlcNAc(b1-3)Gal(b1-3)GalNAc
Outline: as §1

H-Ficolin (Homo sapiens) (chain not printed)
glycan array binding signal (z-score) [1]: -0.859
glycan array binding signal (z-score) [2]: -0.227
glycan array binding signal (z-score) [3]: 2.33

CLEC-2 (Homo sapiens) (chain not printed)
glycan array binding signal (z-score) [4]: -0.061
glycan array binding signal (z-score) [5]: -0.455

Meso764 (Homo sapiens) (chain not printed)
glycan array binding signal (z-score) [6]: 1.8
glycan array binding signal (z-score) [7]: -0.128
glycan array binding signal (z-score) [8]: 1.84

M-Ficolin G221F A256V (Homo sapiens) (chain not printed)
glycan array binding signal (z-score) [2]: -0.274
glycan array binding signal (z-score) [9]: 1.51

Siglec-2 (Homo sapiens) (chain not printed)
glycan array binding signal (z-score) [4]: -0.223

NCAM1 (Homo sapiens) (chain not printed)
glycan array binding signal (z-score) [4]: 1.3

L-Ficolin (Homo sapiens) (chain not printed)
glycan array binding signal (z-score) [5]: 3.18

M-Ficolin G221F (Homo sapiens) (chain not printed)
glycan array binding signal (z-score) [2]: -0.18
glycan array binding signal (z-score) [10]: -0.171
glycan array binding signal (z-score) [3]: -0.185
glycan array binding signal (z-score) [11]: -0.177

FGF2 (chain not printed)
glycan array binding signal (z-score) [12]: 0.213
glycan array binding signal (z-score) [3]: -0.531
glycan array binding signal (z-score) [13]: 0.058
glycan array binding signal (z-score) [14]: 2.51
glycan array binding signal (z-score) [15]: 0.973
glycan array binding signal (z-score) [16]: -0.547

Gal 3 (Homo sapiens) (chain not printed)
glycan array binding signal (z-score) [17]: -0.241
glycan array binding signal (z-score) [18]: -0.202
glycan array binding signal (z-score) [19]: 3.35
glycan array binding signal (z-score) [16]: 3.83

Serum Amyloid P component (Homo sapiens) (chain not printed)
glycan array binding signal (z-score) [9]: -0.695

MBP (Homo sapiens) (chain not printed)
glycan array binding signal (z-score) [10]: -0.305

Thrombomodulin Extracellular (Homo sapiens) (chain not printed)
glycan array binding signal (z-score) [12]: -0.795
glycan array binding signal (z-score) [3]: 0.667
glycan array binding signal (z-score) [6]: 6.14
glycan array binding signal (z-score) [7]: -0.229
glycan array binding signal (z-score) [20]: -0.661
glycan array binding signal (z-score) [14]: 2.43
